# Data from paper PMC4336329 (PLoS ONE, 2015).
# Hit rate of the full screen: of about 310,000 compounds, about 14,000 (4.5%) showed an effect of 50% or more. Effects have a minus sign here. Some of the results follow.
# Molecular target: human ether-à-go-go-related gene (hERG) potassium channel (human, UniProt Q12809)
# Test: primary screen, population patch clamp on CHO cells stably expressing hERG
# 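Further: peak tail current of the secondary pulse compared with the same well before compound.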
# Chain of human ether-à-go-go-related gene (hERG) potassium channel (Q12809 whole entry, looked up): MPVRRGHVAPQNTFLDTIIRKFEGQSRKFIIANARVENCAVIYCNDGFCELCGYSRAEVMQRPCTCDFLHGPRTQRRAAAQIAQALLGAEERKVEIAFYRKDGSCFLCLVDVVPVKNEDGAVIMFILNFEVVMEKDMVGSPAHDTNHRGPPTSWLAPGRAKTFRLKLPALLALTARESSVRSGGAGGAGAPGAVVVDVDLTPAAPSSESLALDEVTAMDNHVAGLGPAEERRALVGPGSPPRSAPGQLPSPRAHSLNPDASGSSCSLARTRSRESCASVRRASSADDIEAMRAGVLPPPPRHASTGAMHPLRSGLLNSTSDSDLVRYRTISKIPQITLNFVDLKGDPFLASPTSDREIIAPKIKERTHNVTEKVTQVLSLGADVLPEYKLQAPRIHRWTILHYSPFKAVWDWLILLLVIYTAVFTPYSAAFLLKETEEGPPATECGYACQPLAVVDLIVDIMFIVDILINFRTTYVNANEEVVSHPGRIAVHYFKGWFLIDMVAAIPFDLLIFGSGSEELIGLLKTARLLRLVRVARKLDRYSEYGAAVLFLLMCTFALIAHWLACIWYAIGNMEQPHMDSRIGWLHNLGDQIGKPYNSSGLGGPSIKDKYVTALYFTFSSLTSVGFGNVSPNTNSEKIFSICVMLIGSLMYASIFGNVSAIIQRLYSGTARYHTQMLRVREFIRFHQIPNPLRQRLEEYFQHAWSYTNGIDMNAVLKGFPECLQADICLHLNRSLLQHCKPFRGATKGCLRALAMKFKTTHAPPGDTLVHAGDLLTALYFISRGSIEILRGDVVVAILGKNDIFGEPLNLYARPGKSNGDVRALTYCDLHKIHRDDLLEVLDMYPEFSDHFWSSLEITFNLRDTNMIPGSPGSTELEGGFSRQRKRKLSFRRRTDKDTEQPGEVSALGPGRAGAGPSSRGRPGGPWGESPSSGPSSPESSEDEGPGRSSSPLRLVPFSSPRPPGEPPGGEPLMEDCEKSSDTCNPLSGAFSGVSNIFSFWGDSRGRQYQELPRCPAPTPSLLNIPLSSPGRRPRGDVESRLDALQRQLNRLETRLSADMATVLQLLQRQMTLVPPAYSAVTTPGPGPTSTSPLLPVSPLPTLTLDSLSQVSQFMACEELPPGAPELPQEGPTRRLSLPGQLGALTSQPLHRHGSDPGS
row,Structure (SMILES),"hERG current change (%, negative = inhibition) at 10uM [%]"
1,CCOC(=O)C1(Cc2ccccc2)CCCN(CCO)C1 (stereo not drawn),6.18
2,O=C(c1ccco1)[C@@H]1[C@@H]2C(=O)N(c3ccc(F)cc3)C(=O)[C@@H]2[C@H]2C=Cc3ccccc3N21,-5.52
3,O=C(Nc1ccc(F)cc1)c1nc(S(=O)(=O)Cc2ccccc2)ncc1Cl,22.2
4,CC(=O)Nc1cc2c3c(c1)CC(=O)N3CCC2,8.56
5,Cc1ccc(C(C)C)c(OCc2n[nH]c(=S)o2)c1,14.5
6,NC(=O)c1nnsc1Sc1c(C(N)=O)nnn1-c1cccc(N)c1,13.2
7,CN(C)CCCNC(NC(=O)c1cccs1)C(Cl)(Cl)Cl (stereo not drawn),-17.5
8,O=C(NCc1ccc(Cl)cc1)C(=O)NCC1OCCCN1S(=O)(=O)c1cccs1 (stereo not drawn),-14.3
9,COCCN(CCOC)C(=O)C1CCCN(S(=O)(=O)c2ccc(NC(=O)OC)cc2)C1 (stereo not drawn),-1.73
10,COc1ccc(CN2C(=O)c3ccccc3C2C(=O)NCc2cccnc2)c(OC)c1 (stereo not drawn),3.3
11,Cc1cc(C(=O)N/N=C/c2ccc(C)o2)c2ccccc2n1,-10.8
12,S=C(NCc1ccco1)NCC(c1ccco1)N1CCCCC1 (stereo not drawn),-28.1
13,COc1ccc(-c2nc(CN3CCCCC3c3nccn3C)c(C)o2)c(C)c1C (stereo not drawn),-64.9
14,O=C(Nc1ccccc1Cl)c1ccc(Cl)cc1Cl,10.5
15,COc1ccc(NS(=O)(=O)c2ccc(N3CCCC3)c(NC(=S)Nc3ccc(SC(F)F)cc3)c2)cc1,17.7
16,O=C(O)CCCC(=O)Nc1ccccc1C(=O)N1CCCC1,-3.58
17,C=C(C)C1CCC(C)=C1CC(C)(C)/C=N\n1cnnc1 (stereo not drawn),29.3
18,CCN(c1ccc(OC)cc1)S(=O)(=O)N1CCCC(C(=O)NCc2ccccc2Br)C1 (stereo not drawn),-24.5
19,O=C(NNC(=O)c1ccccc1O)c1ccc(NS(=O)(=O)c2ccc(F)c(F)c2)cc1,4.73
20,CCOc1ccccc1NC(=O)COc1coc(CN2CCc3ccccc3C2)cc1=O,-23.6
21,Nc1[nH]ncc1-c1ccccc1,0.435
22,CC(=O)N(c1nc(/C=C\C(=O)O)cs1)c1ccccc1F,5.24
23,Cn1c(C(=O)OC(C(=O)NCc2ccco2)c2ccncc2)cc2sccc21 (stereo not drawn),-43.5

row,Structure (SMILES),"hERG current change (%, negative = inhibition) at 10uM [%]"
1,COc1ccc(S(=O)(=O)N2c3ccccc3OCC2CC(=O)O)cc1 (stereo not drawn),9.11
2,CCOC(=O)N1CCC(NCCNC(=O)c2ccccc2Cl)CC1,8.65
3,Cc1ccc(C)c(S(=O)(=O)N2CCN(C(=O)CCCc3c[nH]c4ccccc34)CC2)c1,-7.19
4,COc1cc(CNCCCN2CCOCC2)cc(Cl)c1OCC(=O)NC(C)(C)C.Cl,10.3
5,CCCCOc1ccc(CN=C(N)N)cc1Cl,-2.43
6,COc1ccc(C(=O)Nc2cc(C)on2)c(OC)c1,15.2
7,O=C(CCn1c(=O)oc2ccccc21)Nc1cccc(Br)c1,18.1
8,O=C(NCCCN1CCCCC1)C1CC(=O)N(CCc2ccccc2)C1 (stereo not drawn),12.3
9,O=C(NC1(C(F)(F)F)NC(=O)N(c2ccc(F)cc2)C1=O)c1cccs1 (stereo not drawn),-10.3
10,O=C(Nc1nnc(S(=O)(=O)Cc2ccc(F)cc2)s1)c1ccccc1F,9.55
11,Cc1ccc(-n2[nH]c(C)c(C=Nc3ccc4[nH]c(=O)[nH]c4c3)c2=O)cc1C,8.38
12,COCC(C)n1c(C)cc(C(=O)CSc2nnnn2C2CCCC2)c1C (stereo not drawn),-33.2
13,COc1ccc2cc(/C=N/NC(=O)CN(c3ccccc3C)S(=O)(=O)c3ccccc3)c(Cl)nc2c1,-4.89
14,Cc1cccc(NS(=O)(=O)c2ccc(-c3cnc(C4CC4)o3)cc2)c1C,18.7
15,Nc1nc(-c2c(Cl)cccc2Cl)no1,10.5
16,Br.O=C(NCCNCc1ccccn1)c1ccco1,13.8
17,Cc1ccc(NC(=S)NC2CCCC2)cc1,4.64
18,O=C(COC(=O)C1CCN(S(=O)(=O)c2cccs2)CC1)Nc1ccccc1,-30.4
19,Cn1cccc1C(=O)OCc1csc(-c2ccccc2)n1,-20.9
20,COc1ccc(NC(=O)CCCCCN2C(=O)[C@@H]3Cc4ccccc4CN3C2=O)cc1Cl,-13.2
21,COc1ccc(C2=NOC(C(=O)N(C)Cc3ccccc3)C2)cc1 (stereo not drawn),-18.5
22,CCOC(=O)N1N=C(c2ccc(C)cc2)CC1(O)C(F)(F)F (stereo not drawn),-3.35
23,Cc1cc([N+](=O)[O-])nn1CCCC(=O)NCc1ccccc1,-5.8

row,Structure (SMILES),"hERG current change (%, negative = inhibition) at 10uM [%]"
1,CN(C1CCCCC1)S(=O)(=O)c1ccc(Cl)c(C(=O)O)c1,3.74
2,CCOC(=O)c1cnc2ccccc2c1NCc1ccco1,-56.9
3,COc1ccc(NC(=O)C2CCCN2C(=O)NCc2ccccc2)c(OC)c1 (stereo not drawn),-0.626
4,CCC(=O)Nc1c(C(=O)N2CCN(c3ccccn3)CC2)cnn1-c1ccc(C)cc1,-21.7
5,CNc1nnc(-c2ccc(N(C)C)cc2)s1,8.65
6,Cc1cc(Cl)cc(Br)c1OCCCNCC(C)O (stereo not drawn),-22.8
7,CC(=O)C1=C(O)C(=O)N(c2cccnc2)C1c1ccc(Cl)cc1 (stereo not drawn),7.15
8,Cn1c(=O)cc(OCCCC(=O)NCc2ccc(F)cc2Cl)c2ccccc21,-15.1
9,COC(=O)c1c(NC(C)=O)sc2c1CCCC2,-7.09
10,CCc1cc2c(CN3CCN(CCO)CC3)cc(=O)oc2cc1O,15.6
11,Cc1ccc(NC(=O)CSc2nc(NS(=O)(=O)c3ccc(C)cc3)cc(=O)[nH]2)cc1,-3.61
12,CCn1nccc1C(=O)Nc1ccccc1OC,22.7
13,NNC(=O)CNc1cccc(Cl)c1,15.4
14,O=C(Cc1ccc(Cl)cc1)N1CCN(C(=O)c2ccco2)CC1,-12.8
15,CC(C)C(=O)Nc1ccc(N2CCN(C)CC2)c(F)c1,14.2
16,Cc1ccc(/C=N\NC(=O)CC(=O)NCCc2ccccc2)cc1,-2.82
17,CCOc1ccc(C(=O)N[C@H](C(=O)Nc2ccc(OC)c(S(=O)(=O)N3CCOCC3)c2)C(C)C)cc1,-21.2
18,CC1Cc2ccccc2N1C(=O)CN(C)CC(=O)Nc1ccc(OC(F)(F)F)cc1 (stereo not drawn),-25.8
19,Cc1cc(C)n(-c2nc(SCCN(C)C)c3c4c(sc3n2)CCCC4)n1,-53.7
20,O=C(CCC(=O)N/N=C/c1ccco1)N/N=C/c1ccco1,16.9
21,CSc1nnc2c(n1)OC(c1ccc(C(=O)O)cc1)N(C(C)=O)c1ccccc1-2 (stereo not drawn),1.33
22,C=C1CN(Cc2ccccc2)S(=O)(=O)c2ccccc21,-33.1
23,O=[N+]([O-])c1ccc(N2CCN(S(=O)(=O)c3cnc[nH]3)CC2)cc1,-59.8

row,Structure (SMILES),"hERG current change (%, negative = inhibition) at 10uM [%]"
1,COC(=O)c1ccc(NC(=O)C[n+]2ccccc2C)cc1.[Cl-],10.1
2,CO/N=C(\N)c1ccc([N+](=O)[O-])cc1,3.47
3,COc1cc2c(C(=O)N3CCN(C4CCCCC4)CC3)cn(CC(C)C)c(=O)c2cc1OC,-63.3
4,COC(=O)/C(=C\c1ccc(O)cc1)c1nc2ccccc2[nH]1,22.4
5,CC(C)n1c2ccccc2c2nnc(SCC(=O)Nc3ccccc3C(=O)O)nc21,12.8
6,CN(C)CCNc1ncnc2c1sc1nc(-c3ccccc3)c3c(c12)CCCC3,-11.2
7,COc1cc(C(=O)OC(C)CN2CCOCC2)cc(OC)c1OC.Cl (stereo not drawn),-2.69
8,Cc1ccc([N+](=O)[O-])cc1S(=O)(=O)N1CCCCC1C(=O)O (stereo not drawn),22.6
9,COc1ccc(/C=C/C(=O)NCC(=O)N/N=C/c2cccnc2)cc1,-14.9
10,CCN(CC)CCN(C(=O)c1ccc(N2C(=O)CCC2=O)cc1)c1nc2cc3c(cc2s1)OCO3.Cl,-44.6
11,N=C(N)c1ccc(O)cc1,26.1
12,CCOC(=O)/C(=N\Nc1ncnc2ccccc12)c1ccc(OC)cc1,15
13,COC(=O)c1ccc(NC(=O)Nc2ccc(OC)cc2)cc1,29.4
14,NS(=O)(=O)c1ccc(CCNS(=O)(=O)c2ccccc2)cc1,-0.299
15,CCCN1C(=O)c2ccc(C(=O)Nc3cc(C)ccc3O)cc2C1=O,16.9
16,CCCCOCCCNC(=O)C1CCCCC1,-1.13
17,COc1ccc(S(=O)(=O)Nc2cc(C(=O)NC3CCCCCC3)ccc2N2CCOCC2)cc1,-46.7
18,CCCOc1ccc(C(C)=O)cc1CSCCC#N,-1.08
19,CC(=O)N1CCc2cc(S(=O)(=O)Nc3ccc(C)cc3)ccc21,16.9
20,CC(=O)C(Sc1ncnc2c1nnn2-c1ccc(F)cc1)C(=O)N(C)C (stereo not drawn),7.51
21,COc1cc(NC(=O)c2nn(C)c3c2CS(=O)(=O)c2ccccc2-3)cc(OC)c1,-11.4
